These are enrichments in a pooled selection; single values are uncertain.
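Further: shRNA barcodes quantified by deep sequencing of PCR amplicons from cellular DNA, counts expressed as percent of each subpool, ratio averaged over two biological duplicates.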

In the first data set the test system is NB7. Nature of the data set: fold depletion of shRNA, plasmid library share / infected cells without Dox share (9 days) (ratio); higher = more depleted after infection (more toxic, leaky expression from a Tet-inducible vector; NB7 is a neuroblastoma line without caspase-8). The settings on record: shRNA pool: CD95L ORF + CD95L 3'UTR + Venus libraries. The procedure: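 Pooled lethality screen in NB7 neuroblastoma cells infected with Dox-inducible pTIP shRNA libraries. The libraries tile every 21-mer of the Venus, CD95L or CD95 ORF / 3'UTR; each hairpin is the 21-nt sense sequence + CTCGAG loop + antisense. Cells were cultured 9 days with or without 100 ng/ml Dox. shRNA representation was measured by deep sequencing of the genomic inserts, normalised to the total reads per subpool and averaged over technical replicates. Fold depletion is the plasmid library share / infected cells without Dox share (mean of 2 biological replicates), and the -Dox/+Dox share ratio is the mean of 4 replicate pairings; higher values mean more depletion (toxicity).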
Turning to AAACTGGGCTGTACTTTGTAT, the “fold depletion of shRNA” value came out at 0.835. The same measure, in the same setting: under ATTGGGCCTGGGGATGTTTCA stands 1.29; under TGGAATGGGAAGACACCTATG, 1.55; under GAGTTCGTGACCGCCGCCGGG, 0.641. The same measure, in the same setting: under TCAATGAAACTGGGCTGTACT stands 1.26; under CTTGCAACAACCTGCCCCTGA, 2. Same read-out and setting: under ACTTCTAAATGCATATCCTGA stands 0.952; under GACCTTGAGACCACAGGGTTC, 1.46. For the sequence ATTTATATGTCAACGTATCTG, the “fold depletion of shRNA” value came out at 0.926. The same measure, in the same setting: under TTACCCATATCCCCAGATCTA stands 0.758. Still for that read-out and setting: under TGTTTCAGCTCTTCCACCTAC stands 3.92. Turning to TCTTACATGCATTTGAGGTCA, the “fold depletion of shRNA” value amounted to 3.98. On to GCCACCTACGGCAAGCTGACC, for which the “fold depletion of shRNA” value came to 1.29. For TATCACCGCCGACAAGCAGAA, the “fold depletion of shRNA” value is 2.37. The same measure, in the same setting: under CGGCCACAAGTTCAGCGTGTC stands 0.9; under AAAGCAGCTACCAGGTGTTCT, 0.73. The same measure, in the same setting: under AGATTGAAAAGGACACCTTTT stands 1.02; under TACGGCAAGCTGACCCTGAAG, 1.1. Same read-out and setting: under TGAAAAGGACACCTTTTAACT stands 3.66; under GAGGAGCTGTTCACCGGGGTG, 0.906. As to TGTGTGTGTGTATGACTAAAG, the “fold depletion of shRNA” value amounted to 2.53.

Consider ATTCAGTGAGGGTCTTCTTAC, for which the “fold depletion of shRNA” value was 1.84. ACCACAGCACAGGCCTGTGTC: the “fold depletion of shRNA” value came to 2.38. For the sequence AGGTGGGCCTTGCTACCTCAA, the “fold depletion of shRNA” value is 0.686.

Regarding GAAACTAACAGATAAGCAAGA, the “fold depletion of shRNA” value was found to be 1.15. Same read-out and setting: under GAGGAAAGTGGCCCATTTAAC stands 0.345; under ACGGAAGAACATAGAACTCTG, 0.54. Same read-out and setting: under TGGAGTGAAGTATAAGAAGGG stands 1.58; under GCCCGAAGGCTACGTCCAGGA, 0.725. Still for that read-out and setting: under AGGGAACCACAGCACAGGCCT stands 15.1. CCTTGCTACCTCAAGGGGGAC: the “fold depletion of shRNA” value is 2.05. The same measure, in the same setting: under GACGTTTTTCGGCTTATATAA stands 1.35.

In the case of TTGGGATTCTTTCCATTATGA, the “fold depletion of shRNA” value is 1.48. On the same count and under the same terms, under CCATCCTGGTCGAGCTGGACG stands 1.21; under GGACACCTTTTAACTCACCTC, 6.03. Still for that read-out and setting: under TATTTATGTAGATGTGCATTT stands 0.918; under AGGACGACGGCAACTACAAGA, 1.43. The same measure, in the same setting: under CTTCAAGTCCGCCATGCCCGA stands 1.29; under ACTCATTTCATTCCTAACACA, 2.13; under TTGCAACAACCTGCCCCTGAG, 11.2. CGAGCTGAAGGGCATCGACTT: the “fold depletion of shRNA” value is 3.54. On the same count and under the same terms, under TCCTGAGCCATCGGTGAAACT stands 2.6; under ATCGAGCTGAAGGGCATCGAC, 0.915; under AATCTTACCAGTGCTGATCAT, 1.57. Regarding ATGCCTCTGGAATGGGAAGAC, the “fold depletion of shRNA” value stood at 5.58. Same read-out and setting: under GGCAGATTGAAAAGGACACCT stands 1.21; under GGTCCTGCTGGAGTTCGTGAC, 1.53. Same read-out and setting: under GCTGCCACCCCTGAAGAAGAG stands 4.28; under GGCGTGCAGCTCGCCGACCAC, 1.34.

Take ACCCCTGAAGAAGAGAGGGAA: the “fold depletion of shRNA” value is 1.46.

The same data set, now with this note: shRNA pool: CD95 ORF + CD95 3'UTR + Venus libraries.
Regarding GCAGCTTATACATAGCAATGG, the “fold depletion of shRNA” value is 1.68. Regarding GAGTTCGTGACCGCCGCCGGG, the “fold depletion of shRNA” value is 0.563. The same measure, in the same setting: under TCCTCAAGGACATTACTAGTG stands 1.35. As to AATCAATAGAAGAAGCTATGA, the “fold depletion of shRNA” value came out at 1.25.

For the sequence GAAGATAGTTATAAACTGAAG, the “fold depletion of shRNA” value came out at 0.646.

For TTTGTTCGAAAGAATGGTGTC, the “fold depletion of shRNA” value stood at 0.672. In the case of ATGTCTATCCACAGGCTAACC, the “fold depletion of shRNA” value stood at 2.51.

Regarding CTTGTCATACCCCCAAGTTTC, the “fold depletion of shRNA” value worked out at 2.06.

On to GTGAAGATAGTTATAAACTGA, for which the “fold depletion of shRNA” value was determined as 1.15. Same read-out and setting: under GGGCATCTGGACCCTCCTACC stands 1.49; under CTCTGGCATCTAACATATGAT, 4.66; under TATGCATTTTACTGGCTCAAA, 3.17.

On to TACCCCCAAGTTTCTAAGATT, for which the “fold depletion of shRNA” value amounted to 1.99. On the same count and under the same terms, under GCCACCTACGGCAAGCTGACC stands 0.732. Same read-out and setting: under ATTATAAAATATAGGTAAAAG stands 0.727. As for TATCACCGCCGACAAGCAGAA, the “fold depletion of shRNA” value worked out at 1.26. Consider TTTAAGAAATAATATTTATAT, for which the “fold depletion of shRNA” value was determined as 1.06.

As for CGGCCACAAGTTCAGCGTGTC, the “fold depletion of shRNA” value stood at 0.756. Still for that read-out and setting: under TGGAAATAAACTGCACCCGGA stands 1.26; under TACGGCAAGCTGACCCTGAAG, 0.848; under GAGGAGCTGTTCACCGGGGTG, 1.82. The same measure, in the same setting: under AGCAGAACACCCCCATCGGCG stands 1.36. On the same count and under the same terms, under GTTATAAACTGAAGCAGATAC stands 1.48; under AGATCATATTTATGTAAAGTA, 0.879; under GATAATTCTAGAGATTTTACC, 1.12. Take AGCAATGGTAAAATCATCATC: the “fold depletion of shRNA” value came out at 3.42. On the same count and under the same terms, under AAGTACAGAAAACATGCAGAA stands 1.93; under ATGTTTAAAATCTAGTTGGGA, 0.786. Same read-out and setting: under AATGTCCAAGACACAGCAGAA stands 1.62; under GCTCTCAGAGAAAGTAGCTTT, 2; under AAGTGCAAAGAGGAAGGATCC, 2.27. In the case of TTTTGAGCAGGAGAGTATTAC, the “fold depletion of shRNA” value turned out to be 1.47. Still for that read-out and setting: under GCCCGAAGGCTACGTCCAGGA stands 0.721. Same read-out and setting: under GTGCCCTGGCCCACCCTCGTG stands 0.573; under CTAAAGAACTTCCATTTATGG, 0.754. Still for that read-out and setting: under TTTTTTGTAACTCTACTGTAT stands 0.973; under TACTGGCTCAAAACTACCTAC, 1.28; under CCTTACTACTATCCTACGTTT, 0.905. On to AGAAAGAAGCGTATGACACAT, for which the “fold depletion of shRNA” value was determined as 1.95. The same measure, in the same setting: under TGACTTGAGTAAATATATCAC stands 0.826; under AAACATTAAATTATAATGTTT, 0.796; under ACATTACTAGTGACTCAGAAA, 0.799. Same read-out and setting: under CCATCCTGGTCGAGCTGGACG stands 2.15; under GTTTCTAAGATTTAAGATTCT, 0.808.

CACTAAGTCAAGTTAAAGGCT: the “fold depletion of shRNA” value is 0.534. In the case of TAAATGTAAACTGTGAAGATA, the “fold depletion of shRNA” value is 0.765. The same measure, in the same setting: under GTGTGATGAAGGACATGGCTT stands 1.2; under AGGACGACGGCAACTACAAGA, 1.21; under ATATTTATATTTCTGTAAATG, 1.73. Same read-out and setting: under AAGAAAGAAGCGTATGACACA stands 2.69; under CTTCAAGTCCGCCATGCCCGA, 1.15. Still for that read-out and setting: under GAACTTGGAAGGCCTGCATCA stands 1.48. In the case of TTTGGAGATACTAACTGCTCT, the “fold depletion of shRNA” value worked out at 2.3. Still for that read-out and setting: under TGTATGCATTTTACTGGCTCA stands 2.61; under CGAGCTGAAGGGCATCGACTT, 1.78.

Turning to AACATGGAAATATCACCAAAA, the “fold depletion of shRNA” value came out at 1.01. Still for that read-out and setting: under GACTCAGAAAATTCAAACTTC stands 1.04; under ATGAGATCAAGAATGACAATG, 1.18; under ATTTATCTGATGTTGACTTGA, 1.24.

As to ACTGCTTCGTAATTGGCATCA, the “fold depletion of shRNA” value worked out at 2.96. Same read-out and setting: under TCAAGGACATTACTAGTGACT stands 0.836. Same read-out and setting: under TAAATTATAATGTTTGACTAT stands 1.39. Same read-out and setting: under ATCGAGCTGAAGGGCATCGAC stands 0.977; under CTCCAAGGATGTTTAAAATCT, 0.822; under AAGATCTCAAAAAAGCCAATC, 1.27.

As for CCCTTGCACCAAATGTGAACA, the “fold depletion of shRNA” value is 0.926.

Turning to GAGATACTAACTGCTCTCAGA, the “fold depletion of shRNA” value amounted to 1.18.

Consider AGAAAATTCAAACTTCAGAAA, for which the “fold depletion of shRNA” value was 1.32. Turning to TGGCTTTGTCTTCTTCTTTTG, the “fold depletion of shRNA” value amounted to 1.54. As for GTGCCCTGCCAAGAAGGGAAG, the “fold depletion of shRNA” value is 1.17. In the case of GTATGCATTTTACTGGCTCAA, the “fold depletion of shRNA” value is 0.932. Still for that read-out and setting: under ATGAATGTAATCAGTGTATGT stands 0.707; under GGTCCTGCTGGAGTTCGTGAC, 0.989. Still for that read-out and setting: under CTATTGCTGGAGTCATGACAC stands 0.843; under GATCAAGAATGACAATGTCCA, 1.68. Same read-out and setting: under GGCGTGCAGCTCGCCGACCAC stands 2.74; under GCTTTGCCACCTCTCCATTTT, 1.08. Take AGTATATGCAATTAGTGTTTG: the “fold depletion of shRNA” value is 1.65. Still for that read-out and setting: under AGTAGCTTTGTGACATGTCAT stands 0.387; under TATTTATATTTCTGTAAATGT, 0.734.

(Values after the supplement of paper PMC5655136.)
